# Experimental data from article PMC6919601, “Identification of Plasmodium dipeptidyl aminopeptidase allosteric inhibitors by high throughput screening” (PLoS ONE, 2019).
# Values joined by “and” are separate entries in the source; they are usually repeats but may differ in a detail not shown here. Identical values can stand only once. Screen size: about 110,000 compounds; about 230 (0.21%) showed an effect of 50% or more. The list shows a part of the results.
# Molecular target: DPAP1 (Plasmodium falciparum, UniProt Q8IIJ9)
# Test: primary screen, percent inhibition; read by cleavage of a fluorogenic dipeptide substrate; higher = more effect of the substance
# Set-up: species or system P. falciparum D10 trophozoite lysates; single well
# 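Also: 30 min substrate incubation versus DMSO and 10 µM JCP410 controls.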
# Chain of DPAP1 (Q8IIJ9 whole entry, looked up): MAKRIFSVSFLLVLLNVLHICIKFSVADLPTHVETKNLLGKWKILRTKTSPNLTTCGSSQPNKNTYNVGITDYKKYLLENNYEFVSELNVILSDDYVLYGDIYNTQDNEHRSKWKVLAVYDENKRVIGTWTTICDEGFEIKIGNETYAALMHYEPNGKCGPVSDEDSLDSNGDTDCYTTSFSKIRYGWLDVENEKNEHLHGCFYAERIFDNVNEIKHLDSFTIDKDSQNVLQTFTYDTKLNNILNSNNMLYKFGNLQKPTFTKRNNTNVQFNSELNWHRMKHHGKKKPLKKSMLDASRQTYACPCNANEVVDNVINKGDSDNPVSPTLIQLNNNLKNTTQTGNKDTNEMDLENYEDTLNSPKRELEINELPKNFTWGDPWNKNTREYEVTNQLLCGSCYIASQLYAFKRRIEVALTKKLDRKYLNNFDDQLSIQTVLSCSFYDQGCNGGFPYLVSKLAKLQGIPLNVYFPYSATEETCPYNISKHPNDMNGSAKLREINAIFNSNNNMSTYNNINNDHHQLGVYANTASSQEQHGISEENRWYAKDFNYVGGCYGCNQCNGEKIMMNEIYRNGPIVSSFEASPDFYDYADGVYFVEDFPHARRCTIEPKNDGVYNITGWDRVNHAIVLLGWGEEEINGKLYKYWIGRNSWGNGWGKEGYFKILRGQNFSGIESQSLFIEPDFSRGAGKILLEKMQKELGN
row,Structure (SMILES),% Inhibition @ 10 uM
1,CC(=O)c1ccc(S(=O)(=O)NCc2csc(-c3ccccc3)n2)cc1,-4.24%
2,Nc1ccc(Nc2ccc([N+](=O)[O-])cc2S(=O)(=O)O)cc1,-0.687%
3,O=C(NC1CCCCC1NC(=O)C1CCCCC1)C1CCCCC1 (stereo not shown),3.65%
4,Cc1nc2nc(-c3ccc(Cl)cc3Cl)nn2c(C)c1CCC(=O)NC1CCCC1,2.57%
5,CC(NCc1ccc2c(c1)OCO2)C12CC3CC(CC(C3)C1)C2 (stereo not shown),2.93%
6,COc1cc2c(-c3cccnc3)nc3c(cnn3-c3ccccc3)c2cc1OC,2.53%
7,Cc1cc(C)c2c(=O)c3c(oc2c1)C(=O)N(CCO)C3c1cccc(Br)c1 (stereo not shown),4.83%
8,C=C(C)[C@@H]1CC=C(CN2CC(C)OC(C)C2)CC1 (stereo partly shown),-1.78%
9,CCOc1ccc(C(=O)NCc2ccccc2OC)cc1,3.65%
10,COc1ccc(/C=C2\SC(=O)N(Cc3ccc(F)cc3)C2=O)cc1,7.39%
11,Cc1nc2c3ccccc3n3c(CCCC(=O)N4CCC(Cc5ccccc5)CC4)nnc3n2n1,5.09%
12,Cn1c(SCc2cccc(Br)c2)nc2c1c(=O)[nH]c(=O)n2C,3.05%
13,CC(Oc1ccc(Cl)cc1Cl)C(=O)Nc1ccc(S(N)(=O)=O)cc1 (stereo not shown),-0.759%
14,CCOC(=O)N1CCN(C(=O)C2CCCN(c3nc4ccc(OCC)cc4s3)C2)CC1 (stereo not shown),0.137%
15,Cc1ccc(C(=O)Nc2ccccc2)cc1S(=O)(=O)N1CCOCC1,-5.28%
16,Oc1ccc(/C=C/c2cc(O)n3nnnc3n2)cc1,3.5%
17,COc1ccc(C(=O)N2CCN(c3cccc(C)c3C)CC2)cc1,5.24%
18,O=C(O)CCNc1cn2c(n1)CCC2,2.86%
19,O=C1S/C(=C\c2ccccn2)C(=O)N1Cc1ccccc1F,-5.82%
20,Cc1cccc(-c2nnc3sc(NC(=O)COc4ccccc4F)nn23)c1,-1.26%
21,COc1cccc(C(=O)Cn2c(N3CCOCC3)nc3c2c(=O)n(C)c(=O)n3C)c1,4.11%
22,COc1ccc(C(C)C)cc1S(=O)(=O)NCC1CCCO1 (stereo not shown),1.94%
23,CSc1ccccc1NC(=O)CSc1nccn1C,7.18%
24,O=C(O)c1ccc(NCc2cccs2)cc1,-2.18%
25,CCOC(=O)C1=CN(C(C)C)C=C(C(=O)OCC)C1c1cccc(OC)c1,1.86%

row,Structure (SMILES),% Inhibition @ 10 uM
1,CCOC(=O)C1CCN(c2ccc3ccccc3n2)CC1,-2.48%
2,O=C(O)Cn1cc(/C=C2/NC(=O)N(c3cccc(Cl)c3)C2=O)c2ccccc21,1.96%
3,O=C(CCCN1C(=O)C(c2ccccc2)Oc2cccnc21)NCCC1=CCCCC1 (stereo not shown),-6.3%
4,COc1ccc(C(=O)N(C)C2CCCCC2)cc1,0.247%
5,COc1cc(NS(=O)(=O)c2ccccc2)cc(OC)c1,5.9%
6,COC(=O)c1ccc(-c2ccco2)n1Cc1nc(-c2ccc(OC)c(OC)c2)oc1C,-2.17%
7,CCN(C(=O)c1ccc([N+](=O)[O-])cc1)c1ccccc1,1.48%
8,CCOC(=O)N1CCN(C(=O)c2cc3cc4ccc(OC)cc4nc3o2)CC1,-3.35%
9,CC(C)(C)C1CCc2c(sc3nnn(CC(=O)c4ccccc4)c(=O)c23)C1 (stereo not shown),2.41%
10,Cc1cc(C)c(OCC(O)CNC2CC(C)(C)NC(C)(C)C2)c(C)c1 (stereo not shown),-8.3%
11,COc1ccc(N(CC(=O)Nc2cc(C)ccc2OC)S(=O)(=O)c2ccccc2)cc1,4.76%
12,CC(C)c1ccc(NC(=O)Nc2ccc(Cl)cc2)cc1,-2.12%
13,O=C(CN1C(=O)S/C(=C/c2cccs2)C1=O)Nc1ccc(Cl)cc1,-5.31%
14,CC(C)c1ccc2c(c1)CCC1C2CCCC1(C)C(=O)O (stereo not shown),0.0538%
15,Cc1cccc(C)c1NC(=O)NC1CCCCC1,1.13%
16,Cn1cc(Br)c(C(=O)Nc2ccn(Cc3cccc4ccccc34)n2)n1,0.389%
17,CCCCOc1ccccc1C(=O)Nc1nonc1-c1ccc(OC)cc1,2.29%
18,O=C1Nc2ccc(Cl)cc2SC(c2ccc(Cl)cc2)C1O (stereo not shown),-0.99% and 1.19%
19,COc1ccccc1/C=C(\NC(=O)c1ccccc1)C(=O)Nc1ccccc1C,4.08%
20,Cc1c(C2(c3c(C)n(C)n(-c4ccccc4)c3=O)C(=O)Nc3ccccc32)c(=O)n(-c2ccccc2)n1C,0.634%
21,COc1cc(OC)cc(C(=O)Nc2nc(-c3nnn(-c4cc(C)ccc4OC)c3C)ns2)c1,3.12%
22,Cc1ccc(CS(=O)Cc2ccc(C(=O)NC(C)C)o2)cc1 (stereo not shown),-4.21%
23,Cc1ccc(-n2ncc(C(=O)NC(C)C)c2C2CCN(C(=O)OC(C)(C)C)CC2)cc1,-2.53%
24,CC1=C(CCN2CCCC(C(N)=O)C2)C(C)(C)CCC1 (stereo not shown),0.0792%
25,COC(=O)c1cc(C)nc2c1c(C)nn2-c1cccc(Cl)c1C,1.46%

row,Structure (SMILES),% Inhibition @ 10 uM
1,CC1(C)CN2C(=O)C(NC(=O)c3ccccc3)(C(F)(F)F)N=C2S1 (stereo not shown),-1.11%
2,O=C(Cn1cnc2onc(-c3ccc(F)cc3)c2c1=O)N1CCOCC1,-2.14%
3,Nc1nnc(-c2ccccc2)c(-c2ccccc2)n1,-5.51%
4,CCCC(=O)Nc1cccc2c(NC(=O)CCC)cccc12,-2.85%
5,O=C(Nc1cccc(NC(=O)c2cccs2)n1)c1cccs1,-7.3%
6,Clc1ccc(C2CC(c3ccco3)n3ncnc3N2)cc1 (stereo not shown),-4.52%
7,CN1C(=O)/C(=C/c2cccc(O)c2)S/C1=N/c1ccc(Cl)cc1,5.37%
8,CCCc1nc(SC)ncc1C(=O)NCc1ccc(C)o1,2.25%
9,Cc1ccc(C2C(C(=O)c3cc4ccccc4o3)=C(O)C(=O)N2CCCn2ccnc2)cc1 (stereo not shown),-7.34%
10,COc1nc(-c2cccs2)cc(-c2ccc(C)cc2)c1C#N,-5.63%
11,CCOC(=O)C1=CN(C)C=C(C(=O)OCC)C1c1ccc(C)s1,-5.05%
12,CC1=NN(c2ccccc2)C(=O)/C1=C/c1ccc(Cl)cc1Cl,-3.55%
13,Nc1nc(CS(=O)(=O)c2ccc3ccccc3c2)cs1,-2.7%
14,COc1ccc(CN2COc3ccc4c(oc(=O)c5ccccc54)c3C2)cc1,2.54%
15,CCOC(=O)C1=C(NC(=O)Cc2ccccc2)c2ccccc2CC1(CC)CC,-0.178%
16,Cc1ccc(CNCc2c(C(=O)O)n(Cc3ccccc3C)c3ccccc23)o1,-0.285%
17,Cc1ccccc1OCC(O)Cn1c(NCc2ccccc2)nc2c1c(=O)[nH]c(=O)n2C (stereo not shown),4.36%
18,CCCOC(=O)C1=C(C)NC(=O)NC1c1ccccc1OC (stereo not shown),4.35%
19,O=C(N/C(=C\c1ccccc1Cl)C(=O)N1CCCCCC1)c1ccccc1,-5.07%
20,CC(C)(C)c1ccc(/C=C2/N=C(c3ccccc3)NC2=O)cc1,0.9%
21,COc1ccc(S(=O)(=O)N(CC(=O)NCc2ccco2)c2ccc(C)cc2)cc1,1.59%
22,COc1ccc(C(=O)N/C(=C\c2ccccc2)C(=O)Nc2ccccc2C(=O)O)cc1,2.36%
23,Cc1cc(/C=C2\C(=N)N3N=C(S(C)(=O)=O)SC3=NC2=O)c(C)n1-c1cccc(C(F)(F)F)c1,3.53%
24,COc1cccc(C2CN(c3ccc(F)cc3F)N=C2c2cccs2)c1OC (stereo not shown),5.03%
25,Cc1ccc(OCC(=O)Nc2ccc(C)cn2)cc1,0.145%

row,Structure (SMILES),% Inhibition @ 10 uM
1,CC(C)c1nnc(NC(=O)/C=C/c2ccc3c(c2)OCO3)s1,0.222%
2,C1=C(c2nc3ccccc3s2)N2CCCN=C2S1,-1.98%
3,c1nc(NCCN2CCOCC2)c2sc3nc(N4CCOCC4)c4c(c3c2n1)CCCC4,1.8%
4,CCN(CC)CN1C(=O)C2C3c4ccccc4C(c4ccccc43)C2C1=O (stereo not shown),-4.82%
5,Cc1ccccc1NC(=O)C1(NC(=O)Cc2n[nH]c(N)n2)CCCCC1,-7.23%
6,CCOC(=O)C1=C(CS(=O)(=O)c2ccc(F)c(C)c2)NC(=O)NC1c1ccc(O)c(OC)c1 (stereo not shown),2.85%
7,Cc1ccc2occ(CC(=O)Nc3nnc(C)s3)c2c1,1%
8,C=C(C)[C@@H]1CC=C(CN2CCN(c3cccc(OC)c3)CC2)CC1,-1.64%
9,O=C(O)c1ccc(Oc2ccc3c(c2)C(=O)N(c2nccs2)C3=O)cc1,-1.91%
10,C#CCSc1nc(C)c2cc(OC)ccc2n1,-2.83%
11,O=C(c1ccco1)N1CCN(C(=O)C23CC4CC(CC(C4)C2)C3)CC1,0.00178%
12,COc1ccc(OCCn2c(C)c(C(=O)C(F)(F)F)c3ccccc32)cc1,5.21%
13,O=S(=O)(Nc1cccc2ccccc12)c1ccc(Br)s1,-6.05%
14,OCCN(Cc1ccccc1)CC1CCCCC1,2.7%
15,COc1cc(Br)c(C2CC(=O)Nc3c2ccc2ccccc32)cc1OC (stereo not shown),-8.95%
16,O=c1cccc2n1CC1CC2CN(Cc2nnc(-c3cccc(Cl)c3)o2)C1 (stereo not shown),-5.63%
17,c1ccc(C2N(c3ccccc3)CCN2c2ccccc2)cc1,-0.0217%
18,CCC1CCC(N2CCN(C)CC2)CC1 (stereo not shown),-2.02%
19,NC(=O)c1cc(S(=O)(=O)NC2CCCc3ccccc32)cs1 (stereo not shown),-1.97%
20,Nc1nc(O)c2[nH]c(N3CCOCC3)nc2n1,-4.41%
21,CC/C(=N\O)C(=O)c1ccc(Br)cc1,0.266%
22,Cc1nnc(SCc2nc(-c3cccs3)no2)n1-c1ccc(Cl)cc1,-0.45%
23,CC(C)(C)c1ccc(S(=O)(=O)N2CCN(c3ccc(F)cc3)CC2)cc1,0.389%
24,CCCc1cc(O)nc(SCC(=O)NCC23CC4CC(CC(C4)C2)C3)n1,-1.61%
25,CCN(CC)c1ccc(Nc2nc(-c3c(C)nc4sccn34)cs2)cc1,-2.48%
